# Assay results reported in the supplement of paper PMC8728848.
# The list shows a part of the results.
# B1: Gal 8 (Homo sapiens) (protein)
# chain: MLSLNNLQNIIYNPVIPYVGTIPDQLDPGTLIVICGHVPSDADRFQVDLQNGSSVKPRADVAFHFNPRFKRAGCIVCNTLINEKWGREEITYDTPFKREKSFEIVIMVLKDKFQVAVNGKHTLLYGHRIGPEKIDTLGIYGKVNIHSIGFSFSSDLQSTQASSLELTEISRENVPKSGTPQLQTVSPSWDLQGHGSETFCSVLWTRVFLEIAFCRPIGLTVASFQSLPFAARLNTPMGPGRTVVVKGEVNANAKSFNVDLLAGKSKDIALHLNPRLNIKAFVRNSFLQESWGEEERNITSFPFSPGMYFEMIIYCDVREFKVAVNGVHSLEYKHRFKELSSIDTLEINGDIHLLEVRSW
# Assays:
# Experiment in all cases: glycan array binding signal (z-score within array); higher = stronger binding
# Conditions in all cases: glycan notation: IUPAC condensed, linker removed
# [1] = target: Fuc(a1-2)Gal
# How it was run: (§1)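 The binding signal is a Z-score computed within each array and averaged over linkers. Arrays of the same protein sequence at different concentrations or buffers were also averaged together. Data originate from 3228 arrays in the Consortium for Functional Glycomics database, kept only where the protein sequence was available.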
# [2] = target: Fuc(a1-2)Gal(b1-3)GalNAc
# How it was run: as §1
# [3] = target: Fuc(a1-2)Gal(b1-3)GalNAc(a1-3)[Fuc(a1-2)]Gal(b1-4)Glc
# How it was run: as §1
# [4] = target: Fuc(a1-2)Gal(b1-3)GalNAc(a1-3)[Fuc(a1-2)]Gal(b1-4)GlcNAc
# How it was run: as §1
# [5] = target: Fuc(a1-2)Gal(b1-3)GalNAc(b1-3)Gal
# How it was run: as §1
# [6] = target: Fuc(a1-2)Gal(b1-3)GalNAc(b1-3)Gal(a1-4)Gal(b1-4)Glc
# How it was run: as §1
# [7] = target: Fuc(a1-2)Gal(b1-3)GalNAc(b1-4)[Neu5Ac(a2-3)]Gal(b1-4)Glc
# How it was run: as §1
# [8] = target: Fuc(a1-2)Gal(b1-3)GlcNAc
# How it was run: as §1
# [9] = target: Fuc(a1-2)Gal(b1-3)GlcNAc(b1-2)Man(a1-3)[Fuc(a1-2)Gal(b1-3)GlcNAc(b1-2)Man(a1-6)]Man(b1-4)GlcNAc(b1-4)GlcNAc
# How it was run: as §1
# [10] = target: Fuc(a1-2)Gal(b1-3)GlcNAc(b1-2)Man(a1-3)[Fuc(a1-2)Gal(b1-3)GlcNAc(b1-2)Man(a1-6)]Man(b1-4)GlcNAc(b1-4)[Fuc(a1-6)]GlcNAc
# How it was run: as §1
# [11] = target: Fuc(a1-2)Gal(b1-3)GlcNAc(b1-3)Gal(b1-4)Glc
# How it was run: as §1
# [12] = target: Fuc(a1-2)Gal(b1-3)GlcNAc(b1-3)GalNAc
# How it was run: as §1
# [13] = target: Fuc(a1-2)Gal(b1-3)GlcNAc(b1-3)[Fuc(a1-2)Gal(b1-3)GlcNAc(b1-6)]GalNAc
# How it was run: as §1
# [14] = target: Fuc(a1-2)Gal(b1-3)GlcNAc(b1-3)[Gal(b1-4)GlcNAc(b1-6)]Gal(b1-4)Glc
# How it was run: as §1
# [15] = target: Fuc(a1-2)Gal(b1-3)GlcNAc(b1-3)[Neu5Ac(a2-6)Gal(b1-4)GlcNAc(b1-6)]Gal(b1-4)Glc
# How it was run: as §1
# [16] = target: Fuc(a1-2)Gal(b1-3)GlcNAc6S
# How it was run: as §1
# [17] = target: Fuc(a1-2)Gal(b1-3)[Fuc(a1-4)]GlcNAc
# How it was run: as §1
# [18] = target: Fuc(a1-2)Gal(b1-3)[Fuc(a1-4)]GlcNAc(b1-2)Man(a1-3)[Fuc(a1-2)Gal(b1-3)[Fuc(a1-4)]GlcNAc(b1-2)Man(a1-3)]Man(b1-4)GlcNAc(b1-4)GlcNAc
# How it was run: as §1
# [19] = target: Fuc(a1-2)Gal(b1-3)[Fuc(a1-4)]GlcNAc(b1-2)Man(a1-3)[Fuc(a1-2)Gal(b1-3)[Fuc(a1-4)]GlcNAc(b1-2)Man(a1-6)]Man(b1-4)GlcNAc(b1-4)[Fuc(a1-6)]GlcNAc(b1-4)[Fuc(a1-6)]GlcNAc
# How it was run: as §1
# [20] = target: Fuc(a1-2)Gal(b1-3)[Fuc(a1-4)]GlcNAc(b1-3)[Fuc(a1-3)[Gal(b1-4)]GlcNAc(b1-6)]Gal(b1-4)Glc
# How it was run: as §1
# [21] = target: Fuc(a1-2)Gal(b1-3)[Fuc(a1-4)]GlcNAc(b1-3)[Gal(b1-4)GlcNAc(b1-6)]Gal(b1-4)Glc
# How it was run: as §1
# [22] = target: Fuc(a1-2)Gal(b1-4)Fuc(a1-3)]GlcNAc(b1-2)Man(a1-3)[Fuc(a1-2)Gal(b1-4)[Fuc(a1-3)]GlcNAc(b1-2)Man(a1-6)]Man(b1-4)GlcNAc(b1-4)GlcNAc
# How it was run: as §1
# [23] = target: Fuc(a1-2)Gal(b1-4)Glc
# How it was run: as §1
# [24] = target: Fuc(a1-2)Gal(b1-4)Glc6S
# How it was run: as §1
# [25] = target: Fuc(a1-2)Gal(b1-4)GlcNAc
# How it was run: as §1
# [26] = target: Fuc(a1-2)Gal(b1-4)GlcNAc(b1-2)Man
# How it was run: as §1
# [27] = target: Fuc(a1-2)Gal(b1-4)GlcNAc(b1-2)Man(a1-3)[Fuc(a1-2)Gal(b1-4)GlcNAc(b1-2)Man(a1-6)]Man(b1-4)GlcNAc(b1-4)GlcNAc
# How it was run: as §1
# [28] = target: Fuc(a1-2)Gal(b1-4)GlcNAc(b1-2)Man(a1-3)[Fuc(a1-2)Gal(b1-4)GlcNAc(b1-2)Man(a1-6)]Man(b1-4)GlcNAc(b1-4)[Fuc(a1-6)]GlcNAc
# How it was run: as §1
# [29] = target: Fuc(a1-2)Gal(b1-4)GlcNAc(b1-2)[Fuc(a1-2)Gal(b1-4)GlcNAc(b1-4)]Man(a1-3)[Fuc(a1-2)Gal(b1-4)GlcNAc(b1-2)Man(a1-6)]Man(b1-4)GlcNAc(b1-4)GlcNAc
# How it was run: as §1
# [30] = target: Fuc(a1-2)Gal(b1-4)GlcNAc(b1-3)Gal(b1-4)GlcNAc
# How it was run: as §1
# [31] = target: Fuc(a1-2)Gal(b1-4)GlcNAc(b1-3)Gal(b1-4)GlcNAc(b1-2)Man(a1-3)[Fuc(a1-2)Gal(b1-4)GlcNAc(b1-3)Gal(b1-4)GlcNAc(b1-2)Man(a1-6)]Man(b1-4)GlcNAc(b1-4)GlcNAc
# How it was run: as §1
# [32] = target: Fuc(a1-2)Gal(b1-4)GlcNAc(b1-3)Gal(b1-4)GlcNAc(b1-3)Gal(b1-4)GlcNAc
# How it was run: as §1
# [33] = target: Fuc(a1-2)Gal(b1-4)GlcNAc(b1-3)GalNAc
# How it was run: as §1
# [34] = target: Fuc(a1-2)Gal(b1-4)GlcNAc(b1-3)[Fuc(a1-2)Gal(b1-4)GlcNAc(b1-6)]GalNAc
# How it was run: as §1
# [35] = target: Fuc(a1-2)Gal(b1-4)GlcNAc(b1-3)[Fuc(a1-3)[Gal(b1-4)]GlcNAc(b1-6)]Gal(b1-4)Glc
# How it was run: as §1
# [36] = target: Fuc(a1-2)Gal(b1-4)GlcNAc(b1-6)GalNAc
# How it was run: as §1
# [37] = target: Fuc(a1-2)Gal(b1-4)GlcNAc6S
# How it was run: as §1
binder,measurement,setting,value
B1,glycan array binding signal (z-score),[1],-0.306
same,glycan array binding signal (z-score),[2],-0.36
same,glycan array binding signal (z-score),[3],0.572
same,glycan array binding signal (z-score),[4],0.761
same,glycan array binding signal (z-score),[5],-0.38
same,glycan array binding signal (z-score),[6],-0.275
same,glycan array binding signal (z-score),[7],-0.337
same,glycan array binding signal (z-score),[8],-0.113
same,glycan array binding signal (z-score),[9],-0.193
same,glycan array binding signal (z-score),[10],-0.329
same,glycan array binding signal (z-score),[11],0.458
same,glycan array binding signal (z-score),[12],-0.354
same,glycan array binding signal (z-score),[13],-0.345
same,glycan array binding signal (z-score),[14],0.003
same,glycan array binding signal (z-score),[15],-0.212
same,glycan array binding signal (z-score),[16],0.566
same,glycan array binding signal (z-score),[17],-0.398
same,glycan array binding signal (z-score),[18],-0.353
same,glycan array binding signal (z-score),[19],-0.354
same,glycan array binding signal (z-score),[20],-0.357
same,glycan array binding signal (z-score),[21],-0.355
same,glycan array binding signal (z-score),[22],-0.354
same,glycan array binding signal (z-score),[23],0.044
same,glycan array binding signal (z-score),[24],0.255
same,glycan array binding signal (z-score),[25],-0.363
same,glycan array binding signal (z-score),[26],-0.357
same,glycan array binding signal (z-score),[27],-0.18
same,glycan array binding signal (z-score),[28],-0.339
same,glycan array binding signal (z-score),[29],-0.269
same,glycan array binding signal (z-score),[30],-0.084
same,glycan array binding signal (z-score),[31],0.231
same,glycan array binding signal (z-score),[32],0.132
same,glycan array binding signal (z-score),[33],-0.356
same,glycan array binding signal (z-score),[34],-0.351
same,glycan array binding signal (z-score),[35],-0.234
same,glycan array binding signal (z-score),[36],-0.353
same,glycan array binding signal (z-score),[37],-0.21
